Laboratory results taken from publication PMC10726135.
Some of the results follow. At the low end of the ranking the order means little. The protein was read in a cell extract, so binding may be indirect.

The sequences below were run against T1, HNF4alpha8 (COS-7 nuclear extract) (UniProt P41235-5) (assay: protein-binding microarray). Conditions: COS-7 nuclear extract on double-stranded Agilent 4x180k PBM; binding buffer, salt, pH and temperature not given; high values mean tight binding; double strand, one strand shown; sequences stand for … in …GCCTAGGGAGATTAGAGTATCGGTCGA.
T1 sequence: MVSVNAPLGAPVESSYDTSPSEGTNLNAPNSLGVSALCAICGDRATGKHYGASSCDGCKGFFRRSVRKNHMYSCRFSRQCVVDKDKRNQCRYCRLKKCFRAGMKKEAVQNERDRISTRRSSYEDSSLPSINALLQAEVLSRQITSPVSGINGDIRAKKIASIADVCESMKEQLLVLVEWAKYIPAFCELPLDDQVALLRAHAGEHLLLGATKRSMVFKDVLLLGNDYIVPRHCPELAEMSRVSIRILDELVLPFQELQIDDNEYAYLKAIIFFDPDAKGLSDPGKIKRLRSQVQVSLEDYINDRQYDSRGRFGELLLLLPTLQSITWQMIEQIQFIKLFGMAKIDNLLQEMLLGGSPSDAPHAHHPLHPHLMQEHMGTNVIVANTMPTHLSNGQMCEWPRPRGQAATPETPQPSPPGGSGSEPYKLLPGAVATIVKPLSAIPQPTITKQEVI

| Sequence | binding signal (log2 normalized intensity) |
| --- | --- |
| AAGCATTGCTTGAGTCACTTGGTTTTCACA | -0.851 |
| TCATTGATGAGTGACCTTTGACCTCAGAGA | 10.5 |
| CCCTTGACAATTCCTATTCATTCCCTAAGA | -0.967 |
| GAAGTGCTGACCTTTGGTCTAAACCTACTT | 5.99 |
| GGTTCACTCTATGTTAGGCTGGAAAACTGG | 0.592 |
| ATCAGACACAGAGATAAGGAGGTAACCTTT | 3.93 |
| TATGGGATGATCAGTAAGGAGAGGGGGCGG | -1.3 |
| TAAAGGGCAGCAAGTATTCAAGAAAGGGGC | -1.32 |
| CTGTGTTCTCTCAACCTCTCTGGGGGATGG | 0.317 |
| TCTCTGGCTTGATCCCTGAACTTTGCTCCC | 8.76 |
| TTCTCTCTTGGACTCTTGGACTCCCTGAAG | 5.73 |
| TAACTGTGGGTTCTAGGTAATCACCCTCTC | 0.507 |
| GTTTGGTGTTTAATTTTCAACCTCTTTCTC | 1.49 |
| GATTAGAGACCTCTAGACTCCAGCTAAAGC | -1.41 |
| CATTCCAACCCTGCCATAAACTTCTCCCCC | 4.21 |
| GAGCACAAATAACATTCCTAACATTCTTCC | -1.32 |
| TCCGGCAGCGGCCGGAAAAAGTGAGGAGCA | -1.04 |
| GGCTGAGTCAGTTTAGTCCTGGATGACCCA | 3.33 |
| CATGTGGTCCTAAGACTAACCTTTGACCAT | 8.37 |
| CATGACCTTTGGACTGTGACCCCACCTCTC | 7.69 |
| GGGGACCAGTGGGGGGAAGCTCTGTCACTT | -1.35 |
| CCCAAGCGAATATGTCAGGCTCAGGGACCC | -1.2 |
| GGAAGATGCCTTTTTAGTGCAAGCAAAATT | -0.831 |
| GGACTTTGGCCTTACTTGGCCTGTTTGCTG | 5.89 |
| AAAGTCCATATTCTTTGTTTGGATGCCAAA | 2.25 |

| Sequence | binding signal (log2 normalized intensity) |
| --- | --- |
| GGTGGAGGCAGCAGCTCCAATTAGGAGATC | -1.4 |
| GCCCAAGGAGACAGGCTTTGAGCATCGCTG | -1.41 |
| TGCTCCGGTTCCCAATAAGTTCCTCATTTT | -0.238 |
| GTGCCATTGAGATGGTAACCACACCAAGGG | -1.34 |
| ATTGAGGCTTAGCAGCTTGAGGCTCCGATA | -1.33 |
| GAACTTTGACCACCTACTGTTTGTGCAGAG | 5.12 |
| AGATTTATCTCTCCAAGGTACTGTGAACTC | 2.73 |
| ATTTTACAGATGGGGCTGTTTCTTTGTGTG | 1.49 |
| TGACCATCTGCGAAATGGGGATAAACACCC | -1.13 |
| CCCACTCTCCTCTGCCACTGTATCAGGGAG | -1.31 |
| CTGGCTTTCATTCCACTGACTTGCAACCTT | 1.09 |
| GCTAGTAAGGAGCTGAGTCATAGTGGACTT | 4.03 |
| CATGACTTACTTGGCATCATCAAACAAGAT | -1.16 |
| CTCTAGAGTGGTTGCCTGTGAGTCAGGTAC | 0.816 |
| GAAGATGCCACGCAATGCATAGCAGAAACA | -1.34 |
| CTATGAATGAAGTCTTTTCCATCGCCCTTA | 1.55 |
| GCTTCCTGGAGAAATGTCCGCCTGGTGTTT | 1.1 |
| CAGGCTCATTCTAACCCAAATGCAAATACC | 0.831 |
| GATACGGCCTGGACTCCAAGCCCCAAAAAC | 1.98 |
| GAGGTGTTCTCTGGGGTTAGCCAAACAAAT | 0.13 |
| AAGTGCCCGGATAAACTTCCAGCCATTTTG | -1.13 |
| AAATGAGTTTCATTAGACAGAAACCAAGCT | -1.46 |
| TGGCCATGAAAGTATCCAGCTCCTCTTCAC | -1.21 |
| CCCGGCAGATCAGGGTCAGGCTGTGGTACG | 1.4 |
| CTCCAGAAATACAGAAGCTGCTCTAAGAAT | -1.1 |

| Sequence | binding signal (log2 normalized intensity) |
| --- | --- |
| TACTAATTTTGTTTCCTAGTTCAAACAGGC | -0.105 |
| GGACTTCGAATGGTATGCTAGAGTACTTGG | 1.51 |
| ATTCAATGTTTGGGAGCCTTGCACACTCGC | -1.23 |
| CCTCCAACTATTGCTCAGCAGGGAGATGGA | -1.34 |
| GAGTTCAGATCACAAAGGAGCTTGTAAGCC | -1.37 |
| TTCAGGAAGGCCTGTTAAAAACACGAGCTA | -1.35 |
| AGCTGTTACTCATTCCCAGGTCGGGCCGGA | 0.376 |
| TTTATTTGAAGAAATGGTGGACTTTGTAGC | 6.52 |
| CCAGTTCACTCAGTCCACATGGTGTCTTTT | 1.35 |
| TCCTTGTTTTTTCATAGGCCTTTATTTGCT | 0.625 |
| TGGTCATGGAGGGAACAAAACTTCACCTCC | -1.27 |
| TTTTCCCCCTTTGAAGTCTGCCCTCCATGT | 4.83 |
| TTGAACACCACAAGTTTGAACTGCACAGGC | 0.14 |
| TCTGCTGTGCCGGGTATGTGGGGCGTGTGT | 2.19 |
| ATGATAAGTAGACAGATCAGAGAGATTTTC | -1.28 |
| CAACTAGAGATAAACTTTTGATTGCTTAGG | -1.33 |
| CAAGCAAAAGCCAAGGCATCTGGGGGCTTG | -1.14 |
| AAGTCTTTGTTCCTAGCCACCATGCTCGGC | -1.33 |
| TCTGGCCTGACCCCCTCCTCACCCCACTTT | 5.23 |
| CGTGGTGGATGGGGGAGGGGACTTCGCTGG | -1.3 |
| TGTTATCTTTTCAAGGATGTTTATACAGCC | 1.27 |
| GATGAATCCACAAAGATAAGAAAAAAACAG | -1.31 |
| CTTTAATTACCTGTTCTAAGCACCTCTGCT | -1.01 |
| AACTATGTTTATCAGAGCAAAGTTCAATTT | 5.19 |
| TAAACCTAGCTACTAGCCATTTCGGCACCT | -1.49 |

| Sequence | binding signal (log2 normalized intensity) |
| --- | --- |
| CTGCTCTCAGCTCCTAAAGGCAGCCCCTTA | -1.33 |
| GAGTTCCAAAGTCCATGTTCATAACTGTTA | 5.37 |
| GTGGAGACACTGCCAGTGTCTCAGGGAGCT | -1.34 |
| AGCATATGTTGACCCGAGTGCCCTTTGGCA | 5.32 |
| TTCAAAGAAGCTGTTGGAAAGGGCACTGAT | 0.663 |
| GATTAAAGGAGAACTGAGTAGGAGAATGTT | -1.17 |
| AAGCCCAAGGGATCGTCCAAATACCTAGCT | -1.35 |
| GAATTTTCTCATCCGCTAATGACACCAGGG | -1.26 |
| CCCCCAGAGCCCCGTGTCTCCCTACCTCTG | 3.76 |
| GCAAGATTAAGATCAAAGAATTCCTAATAA | -1.42 |
| CAAGAATTTAAGAGAACTAGAGATAAGGTA | -1.36 |
| TATATTTGTGCAAGAATGCGTCATCCGCAT | -1.04 |
| CTCTAACCACTTTGAAATAGTGACCTCTGC | 5.01 |
| ACATTCTTCAATATCAGTGGCACTCTCTGG | 1.15 |
| TCCCCTCCCAAGGCAGCAATCCCCTGCAAT | 4.91 |
| CTCTGTGCTCCCAGTTCCCTCATTAGTAAC | 0.334 |
| AGCCTGCCTGCTCCTCCTCGTGAGTTGGAG | -1.32 |
| ATTAGCTTCTGTTCAGGAGTTGTCTGTCCA | 1.39 |
| ACAGATGGTGTTAAATCCTATCCTAGGGTT | 0.667 |
| CACAGAGGGAAATGCAAACATTTCTGGAAT | -1.29 |
| GATTAGAAGATAGCTTTAAAGACCAAAGAT | -1.38 |
| ATTAGTAGCAATACTTTCAGCTAGCTGAGT | -0.294 |
| ACAAAAAGCGGACAAACCAGTCCCATCTGT | -1.33 |
| CTTCAGCACCTTTTAAAATAGATAAGTCCC | -0.0887 |
| ACCCACCAACAAAAGAAAGCCCATTAAATC | -1.33 |

| Sequence | binding signal (log2 normalized intensity) |
| --- | --- |
| TTGCCACATTTATTGTGAGATTACGTAAGT | 1.55 |
| CAATGCAAATCCCAGAGTTCAAAGGCCAAA | 5.12 |
| AAATTACACTGGGAGGCAAATCTCTTGGTC | 0.296 |
| TGAATGATCAAAGGTTGGTTTTTGGAGACA | 3.36 |
| GGATGAAGGAAGAGGGAAGACCAAAGGCCA | -1.36 |
| TACACTCGCCGTGTGACTGAGGGCTGACAT | -1.23 |
| CTTTCAGAAGGGGACAAGCACATTAGGAGG | -1.35 |
| AGCAACCAGAATGTTCAAAAGTGTGTTGGT | 1.48 |
| CAGCGAAGCTGTGTCAGGCATTGTACTCAC | 1.41 |
| ATGCCTTAAGGGACCTCTTAGAAAAGTAGA | -0.345 |
| TGGATAGTGCCTTTTCTAATATCTACATGT | 1.61 |
| AGTCTAACCCAACTAAGAACACAGTCATTT | -0.136 |
| TCCAGGCTTGGAGCCCCTTTGGAGGGGAAG | -1.25 |
| TTTCTCCAGTGCCCTTAGGGGCCGCATTGA | 0.395 |
| TACTCACACTCAAGGCAAGAGAGTCATAAA | -0.837 |
| AAGTCCAATCTTCTGGCCCCATCTATCTAG | 1.64 |
| CACCTCCTTTGACCTGGGAATTCAAGGAAT | 0.319 |
| CAGGACACTTCTGAAAAAAATATTGAACAA | -1.1 |
| ACTGTTGCATCAAACAGCTTAGGGTTCAAA | 2.7 |
| AACAAGGTATGAGGCCAGTTTTCCTAAGGG | -1.36 |
| GCTCCAGAGAGCCAGATGAAGCTGCAGCCT | -1.17 |
| TGTCTCAGCCCAAGATCAAAAGGCAGAGAG | -1.33 |
| TCGCCCTCCGTCGTGGCCTGGCGTGGATTC | 0.159 |
| TTTGGCTGTAGAAAGACTAAAGTTCAGGAG | 2.29 |
| GGAGGTCTGCACAAAATACAAGTCGTAAAG | -1.34 |

| Sequence | binding signal (log2 normalized intensity) |
| --- | --- |
| ATTGCACCCTTCCCTAAGATTTATCCCAAA | 1.2 |
| GAAGTATTTATTGAGCACACACTCTTCGAA | -1.23 |
| CTGACTGTGTCTGTTTACCCACTTGGGGTT | 1.36 |
| ATATGCACTTGCCCTTTGGTAATCCTGCTC | 3.05 |
| TGTGCCGGGTATGTGGGGCGTGTGTTAGAC | 1.56 |
| GTTTTGTCTTCTGTTTGCAAATGGATGAAT | 1.81 |
| AAAGGGACTCATCTCCAAACGAGACTTTGG | 2.23 |
| CCAGTTCTTTTGACCTTTGCCTCATTCTTA | 7.02 |
| TGTTGCGTAAGGGTCTGACCTGGCTGCTTG | 1.36 |
| TATCTTTGGAGAATGCCTTTTGTGTAGGAG | 1.69 |
| CAGTGTGTTGCATGCCACAGCGCCCTCAGT | 0.8 |
| AAAGAAGCAAAGGTTGGCTAAAGATAACCT | -1.23 |
| TCTAGGAGCCTGGACATTTGCCACCAATGC | -1.27 |
| TGGGCAGGCTCCCTCCCTGGGAGGCAGGAC | -1.33 |
| ATCTGCGAAATGGGGATAAACACCCCCATC | 0.531 |
| GGAAAGCACAGCTGATTGCTCAACCCAAAG | -1.36 |
| TGAGACATTTTGTCTTTTCTCCCCTGACTA | 2.66 |
| AGGCCCACACCCCTGGGGAAGGCAGGTCTC | -1.32 |
| CCTGAGAGGGCTCAAGGTCTGCATGCCATT | -0.212 |
| TCCCCCAACTTACTTAGTGGCTCCTAGAAT | -0.204 |
